Reference: PubChem BioAssay AID588342 (National Center for Advancing Translational Sciences (NCATS), 2011)
About 25,000 (6.9%) of roughly 360,000 compounds were called active. The inconclusive results got no clear call from the source; some entries with a clear call stand among them for comparison. Calls come from the whole dose curve; as a rule, active = well fitted inhibition curve with a large enough effect; inconclusive = small, poorly fitted or top-dose-only effect; inactive = flat fitted curve, though single readings scatter. A potency beside an inconclusive call is a rough fit, not a confirmed value.

Molecular target: Luciferin 4-monooxygenase (Photinus pyralis) (UniProt P08659)
Test: qHTS profiling assay for firefly luciferase inhibitor/activator using purifed enzyme and Km concentrations of substrates (counterscreen for miR-21 project); note: nearly all actives have a fitted effect of over 55% in size
Settings: purified FLuc, luminescence inhibition; series mostly up to 57.5 µM
Summary of the method: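 Purified P. pyralis luciferase, 10 nM final, with Km-level 10 uM D-luciferin and 10 uM ATP in 50 mM Tris acetate pH 7.5, 10 mM Mg acetate, 0.01% Tween-20, 0.05% BSA; 6-point qHTS titration about 60 µM downward; luminescence read.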
Potency is the fitted concentration of half-maximal effect; tags give direction and shape of the fitted curve.

Sequence of UniProt P08659 (P08659 whole entry, looked up): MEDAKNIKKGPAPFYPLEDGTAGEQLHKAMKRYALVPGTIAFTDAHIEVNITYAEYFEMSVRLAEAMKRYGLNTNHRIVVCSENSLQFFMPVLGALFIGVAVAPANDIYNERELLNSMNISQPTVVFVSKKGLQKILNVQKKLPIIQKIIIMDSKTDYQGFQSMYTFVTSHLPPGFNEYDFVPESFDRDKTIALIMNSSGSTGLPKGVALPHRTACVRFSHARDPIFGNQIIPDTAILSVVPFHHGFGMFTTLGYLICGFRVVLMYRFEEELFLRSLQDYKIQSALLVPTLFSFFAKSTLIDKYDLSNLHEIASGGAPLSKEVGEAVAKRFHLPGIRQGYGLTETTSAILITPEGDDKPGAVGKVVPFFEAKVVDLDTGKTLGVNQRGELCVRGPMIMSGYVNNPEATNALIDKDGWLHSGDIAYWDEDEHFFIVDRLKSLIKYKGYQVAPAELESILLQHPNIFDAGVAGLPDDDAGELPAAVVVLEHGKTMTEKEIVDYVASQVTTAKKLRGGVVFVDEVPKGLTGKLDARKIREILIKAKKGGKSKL

Row | SMILES | Potency
1 | N#Cc1cn(-c2ccccc2)nc1-c1ccccc1 | inconclusive: 8.49 µM [inhibitor, partial curve, poor fit]
2 | COc1ccc(NC(=O)CSc2n[nH]c(-c3ccco3)n2)cc1 | inconclusive: 23.9 µM [inhibitor, partial curve, poor fit]
3 | COc1ccc2c(c1)c1nnc(SC)nc1n2C | inconclusive: 21.3 µM [inhibitor, partial curve, poor fit]
4 | Cc1ccc2c(C(=O)N3CCN(c4ccccc4)CC3)cc(-c3cccnc3)nc2c1C | inactive
5 | Cc1ccc(/C=N/NC(=O)c2csc3c2CCCC3)cc1 | active: 10.7 µM
6 | Cc1cccc(-c2noc(-c3c(C)noc3C)n2)c1 | inconclusive: 26.9 µM [inhibitor, partial curve, poor fit]
7 | Cc1ccc(SCC(=O)Nc2cccc(C)c2)cc1 | inconclusive: 26.9 µM [inhibitor, partial curve]
8 | C=CCn1c(C)cc(C(=O)COC(=O)/C=C/c2c(C)nn(C3CCS(=O)(=O)C3)c2Cl)c1C (stereo not given) | inconclusive: 16.9 µM [inhibitor, partial curve]
9 | CCCn1c(SCC(=O)Nc2ccc3c(c2)OCCO3)nnc1-c1ccco1 | inconclusive: 26.9 µM [inhibitor, single point]
10 | O=C1NCCN/C1=C\C(=O)c1cccc(Br)c1 | inconclusive: 37.9 µM [inhibitor, single point]
11 | CC(C)(C)OC(=O)NCCCCCc1nnc(SCC(=O)Nc2cccc(Cl)c2)o1 | inconclusive: 30.1 µM [inhibitor, partial curve, poor fit]
12 | O=C(Nc1ccc2c(c1)CCC2)C1CCCO1 (stereo not given) | inconclusive: 26.9 µM [inhibitor, partial curve, poor fit]
13 | Cc1cc(C(=O)CN2C(=O)C3CC=CCC3C2=O)c(C)n1-c1ccccc1 (stereo not given) | active: 0.675 µM
14 | O=C(NN=C1CCCCCCC1)c1ccc2ccccc2n1 | inconclusive: 30.1 µM [inhibitor, single point]
15 | Fc1ccc(-c2cc(-c3nnc4n3CCCCC4)c3ccccc3n2)cc1 | inconclusive: 26.9 µM [inhibitor, single point]
16 | COc1ccc(C2CC(=O)N(CC(=O)Nc3ccc(C(C)=O)cc3)c3ccccc3S2)cc1OC (stereo not given) | inactive
17 | CC(C)C(NC(=O)c1ccccc1NC(=O)c1ccccc1)C(=O)NNC(=O)c1ccncc1 (stereo not given) | inconclusive: 21.3 µM [inhibitor, partial curve, poor fit]
18 | O=C(CSc1nnc(-c2ccco2)n1Cc1ccccc1)NCc1ccccc1 | inactive
19 | CC(C)n1c(-c2ccco2)csc1=Nc1cccnc1 | inconclusive: 30.1 µM [inhibitor, partial curve, poor fit]
20 | COc1ccc(OC)c(NC(=O)CSC2=NCCS2)c1 | inconclusive: 37.9 µM [inhibitor, partial curve, poor fit]
21 | O=C(NCCc1ccc2c(c1)OCCO2)c1ccc([N+](=O)[O-])cc1Cl | inconclusive: 30.1 µM [inhibitor, partial curve, poor fit]
22 | Cc1ccc2c(c1)sc(-c1ccc(N(C)C)cc1)[n+]2C | active: 12 µM
23 | NS(=O)(=O)c1ccc(N/N=C/c2ccc(C(=O)O)cc2)c([N+](=O)[O-])c1 | inconclusive: 26.9 µM [inhibitor, single point]
24 | CC1=Nc2cc(C(=O)N3CCCCC3)ccc2Sc2ccc(C)cc21 | inconclusive: 37.9 µM [inhibitor, partial curve, poor fit]

Row | SMILES | Potency
25 | O=C(NCCc1ccccc1)c1c[nH]c2c(F)cccc2c1=O | inconclusive: 26.9 µM [inhibitor, partial curve]
26 | COc1ccccc1CCNC(=O)CCCn1c(=O)c2cccn2c2cccnc21 | inactive
27 | CCCc1cc(-c2n[nH]c(=S)n2CC)cs1 | inconclusive: 16.9 µM [inhibitor, partial curve]
28 | O=S(=O)(Nc1nc2ccccc2nc1Cl)c1ccc(Br)cc1 | inconclusive: 37.9 µM [inhibitor, partial curve, poor fit]
29 | Cc1ccc(N=C2SC(C(=O)O)CC(=O)N2C)cc1C (stereo not given) | inactive
30 | Cc1ccccc1NC(=S)NCc1ccc2c(c1)cc(C)n2C | inconclusive: 26.9 µM [inhibitor, partial curve, poor fit]
31 | CCCC(=O)Nc1nnc(SCC(=O)NC2CC2)s1 | inactive
32 | NC(=O)CN1C(=O)C(=O)N(Cc2cccc(C(F)(F)F)c2)C1=O | inactive
33 | CCC(C)C(NS(=O)(=O)c1ccc(C)cc1)C(=O)N1CCOCCOCCOCC1 (stereo not given) | inactive
34 | CN(C)c1ccc(NC(=O)C(=O)NCCOc2ccccc2)cc1 | inactive
35 | O=C(COC(=O)c1ccccc1Br)NC1CCCC1 | active: 16.9 µM
36 | Cc1ccsc1C(=O)NNC(=O)c1csc(N2CCOCC2)n1 | inconclusive: 30.1 µM [inhibitor, partial curve, poor fit]
37 | CC(C)CC(=O)Nc1nnc(SCc2cc(=O)n3ccccc3n2)s1 | inactive
38 | C/C(=N\NS(=O)(=O)c1ccc(C)c([N+](=O)[O-])c1)c1cc2ccccc2o1 | inactive
39 | COc1cccc2cc(-c3nc(-c4cccs4)cs3)c(=O)oc12 | active: 5.36 µM
40 | O=c1[nH]c(CSc2ccccn2)nc2c1cnn2-c1ccccc1 | inconclusive: 37.9 µM [inhibitor, partial curve, poor fit]
41 | COc1cccc(C(=O)NCC(=O)OCc2cc(=O)n3ccsc3n2)c1 | inactive
42 | Cc1cc(C(=O)COC(=O)c2n[nH]c3ccccc23)c(C)n1C | active: 1.35 µM
43 | COc1cc(/C=C(/C#N)c2nc3ccccc3[nH]2)ccc1OCc1ccc(C(=O)O)o1 | inconclusive: 26.9 µM [inhibitor, single point]
44 | CCCCCOc1ccc(NC(=O)CCCC(=O)O)cc1 | inconclusive: 37.9 µM [inhibitor, partial curve, poor fit]
45 | Cc1ccc(S(=O)(=O)N(C)c2ccc(C(=O)NCCc3ccccc3)cc2)cc1 | inconclusive: 21.3 µM [inhibitor, partial curve, poor fit]
46 | O=C(N/N=C/c1ccc(-c2ccc(Br)cc2)o1)c1ccc2c(c1)OCO2 | inactive
47 | Cc1cccc(N2C(=O)/C(=C\c3ccc(C(=O)O)cc3)c3ccccc3C2=O)c1 | inconclusive: 37.9 µM [inhibitor, partial curve, poor fit]
48 | CC(Cc1cccs1)NC(=S)Nc1ccc(Cl)cc1 (stereo not given) | inconclusive: 37.9 µM [inhibitor, single point]

Row | SMILES | Potency
49 | S=C(NCCc1ccccc1)N1CCOCC1 | inconclusive: 26.9 µM [inhibitor, partial curve, poor fit]
50 | Cc1ccc(/C=N/NC(=O)c2ccc(OC3CCCC3)cc2)o1 | inconclusive: 30.1 µM [inhibitor, single point]
51 | O=c1cc(-c2ccccc2Cl)oc2c(Br)ccc(O)c12 | active: 12 µM
52 | COc1ccc(-c2nn(-c3ccccc3)cc2/C=N/NC(=O)c2ccc(Br)o2)cc1 | inconclusive: 9.53 µM [inhibitor, partial curve, poor fit]
53 | CN1CCN(c2nc(-c3ccc(C(C)(C)C)cc3)nc3ccccc23)CC1 | inconclusive: 6.01 µM [inhibitor, partial curve, poor fit]
54 | Cc1ccc(N(CC(=O)NCc2ccco2)C(=O)CNS(=O)(=O)c2ccccc2)c(C)c1 | inactive
55 | O=C(Nc1ccccc1)C1C2/C=C\CCCCC21 (stereo not given) | inconclusive: 19 µM [inhibitor, partial curve]
56 | CCCCc1ccc(/C=C(\C#N)C(N)=S)s1 | inconclusive: 37.9 µM [inhibitor, partial curve, poor fit]
57 | Cc1ccc(C(=O)CCC(=O)OCC(=O)Nc2ccc3[nH]c(=O)[nH]c3c2)cc1 | inconclusive: 23.9 µM [inhibitor, single point]
58 | c1ccc(OCCOc2ccccc2-c2nnco2)cc1 | inconclusive: 23.9 µM [inhibitor, partial curve, poor fit]
59 | O=C(O)c1cc(Sc2ccc(Br)cc2)nc2ccccc12 | inconclusive: 13.5 µM [inhibitor, partial curve]
60 | COc1cccc(NC(=O)CN(C)C(=O)c2ccc(-n3cncn3)c([N+](=O)[O-])c2)c1 | inactive
61 | CN(C)c1ccc(C2NCCS2)cc1 (stereo not given) | inconclusive: 33.8 µM [inhibitor, partial curve, poor fit]
62 | COc1ccccc1NC(=O)CSc1oc(-c2ccccc2)nc1S(=O)(=O)c1ccc(C)cc1 | inactive
63 | O=C(C#Cc1cccc([N+](=O)[O-])c1)c1ccccc1 | inconclusive: 7.57 µM [inhibitor, partial curve, poor fit]
64 | O=C(CSc1c2c(nc3cc(Cl)ccc13)CCCC2)N1CCN(c2ccccc2F)CC1 | inactive
65 | CN(C)c1ccc(/C=C/C(=O)c2ccc(C(C)(C)C)cc2)cc1[N+](=O)[O-] | inconclusive: 23.9 µM [inhibitor, single point]
66 | CC(=O)Nc1ccc2c(c1)ncn2-c1ccc(C)cc1 | active: 5.36 µM
67 | CCOC(=O)c1c(C)oc2c1c(CN1CCN(CCO)CC1)c(O)c1ccccc12 | inconclusive: 37.9 µM [inhibitor, single point]
68 | O=C(Oc1ccc([N+](=O)[O-])cc1)c1ccc2ccccc2n1 | inconclusive: 37.9 µM [inhibitor, partial curve, poor fit]
69 | CCOc1ccc(NC(=O)Cn2nnc(C(=O)NCCc3ccccc3)c2N)cc1 | inactive
70 | COc1ccc(-c2cc(OC(=O)c3cccc(Cl)c3)c3c(C)oc(C)c3c(=O)c2)cc1 | inconclusive: 37.9 µM [inhibitor, partial curve, poor fit]
